Sequences and labels used below:
B1: TPR 5TU (parent)
chain: GGAUCUUCUCGAUCUAACAAAAAAGACAAAUCUGCCACAAAGCUUGAGAGCAUCUUCGGAUGCAGAGGCGGCAGCCUUCGGUGGCGCGAUAGCGCCAACGUUCUCAACUAUGACACGCAAAACGCGUGCUCCGUUGAAUGGAGUUUAUCAUG

Variants at the background level are over-represented here.

In this data set the parent is B1. In words: polymerase ribozyme fitness, log enrichment relative to wild type (log ratio); higher = more active; in vitro selection for triplet polymerase activity. A digest of the protocol: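 Mutant libraries for each subunit of a heterodimeric triplet polymerase ribozyme were made by PCR and then transcribed. Each library underwent one round of in vitro selection in triplicate: annealing with a biotinylated primer, the partner subunit and triplets, frozen incubation at −7 °C, gel excision of extended constructs, streptavidin-bead capture and RT-PCR. Input and output libraries were Illumina-sequenced, and only genotypes with ≥10 input reads and ≥1 read per output were kept. Fitness is the logarithm, base 2, of genotype enrichment over wild-type enrichment, computed from inverse-variance-weighted replicate averages.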
For the variant A30U A52C U90C C93U C95U C96U A106G, the “polymerase ribozyme fitness (log ratio)” value is ≤ -4.2. As to A30G G42C C43A A64G G68A A91U C96U A98U G133U G140A, the “polymerase ribozyme fitness (log ratio)” value was ≤ -4.2. As for A30C G92A U104A A106C C108A, the “polymerase ribozyme fitness (log ratio)” value is ≤ -4.2. Take A30C C36U A121G G124C: the “polymerase ribozyme fitness (log ratio)” value was ≤ -4.2. In the case of A30G G46A U148C G152U it was ≤ -4.2; in that of A30U C72G C93U A137C, ≤ -4.2; in that of A29U U44G G50C C79A G80C, ≤ -4.2. A30U A52G G67U C132U: the “polymerase ribozyme fitness (log ratio)” value was ≤ -4.2. In the case of A29U C87A C99G it was ≤ -4.2. With A30U C36A G58C A121C, the “polymerase ribozyme fitness (log ratio)” value was ≤ -4.2. A30U A49C C54G C96G C108A A121C: the “polymerase ribozyme fitness (log ratio)” value is ≤ -4.2. In the case of A30U G48C G50A G80A G100C A147C it was ≤ -4.2; in that of A30U A47C U56A C108G, ≤ -4.2.

In the case of A30G U78A, the “polymerase ribozyme fitness (log ratio)” value was ≤ -4.2. Then A29U C85G C118U, with ≤ -4.2; and A29U U45G C69U G70C C87A C114U, with ≤ -4.2; and A30U A52C G83C, with ≤ -4.2. Then A30U C87G U101G U146A C149G, with ≤ -4.2.

For A30U A73U G74U C76G U90G U139C, the “polymerase ribozyme fitness (log ratio)” value is ≤ -4.2. With A29U C76U C93U U101G U130A, the “polymerase ribozyme fitness (log ratio)” value is ≤ -4.2. Regarding A30G G58C C85U A89U C125U U144C, the “polymerase ribozyme fitness (log ratio)” value was ≤ -4.2. As to A30C C87A, the “polymerase ribozyme fitness (log ratio)” value is ≤ -4.2. As for A30G U33G U82C C103A U144A, the “polymerase ribozyme fitness (log ratio)” value is ≤ -4.2. In the case of A30U C35U G84A it was -4.19. Then A30U G46U U55A G59A A91G G140A, with ≤ -4.2. In the case of A30G G42C C72U A89G A115G it was ≤ -4.2.

As to A30G C32U G92A, the “polymerase ribozyme fitness (log ratio)” value is ≤ -4.2. Then A30C G42A C85A C116A G140A, with ≤ -4.2; and A29U U55G C57U G67C A98G, with ≤ -4.2. Then A29U G68A G83A C103G, with ≤ -4.2; and A30G A39C G50U C95G A107C, with ≤ -4.2; and A30U A41G C57G U61A A97G U101G G152U, with ≤ -4.2. Regarding A30C U31G G34C C95A A147C, the “polymerase ribozyme fitness (log ratio)” value was ≤ -4.2. Then A30C A52U A60G A64U A142G U146A, with ≤ -4.2; and A29U G48A U61G G84U C85A C105U G126U, with ≤ -4.2; and A29U G50C G81C A89U C114A C118G, with ≤ -4.2.

Turning to A30C C87G C99G C132A G140U, the “polymerase ribozyme fitness (log ratio)” value is ≤ -4.2.

A30C G81U C93A C99G A110G A120U C123A G124A U135A: the “polymerase ribozyme fitness (log ratio)” value was ≤ -4.2. Then A30C G80A C87G A115G U145G, with ≤ -4.2; and A30G G80A C95U A142U, with ≤ -4.2; and A29U C69A G84A G143U, with ≤ -4.2. Then A30U C54A A97G U101G A142G, with ≤ -4.2; and A30G G92A C118A A120U C129U, with ≤ -4.2.

A30C C75G C103G: the “polymerase ribozyme fitness (log ratio)” value is ≤ -4.2. Then A29U G83A A97U U134G, with ≤ -4.2. In the case of A29U G59C it was ≤ -4.2. For A30G U53G U61A G92A, the “polymerase ribozyme fitness (log ratio)” value was ≤ -4.2. A30G U45G G46C C76U C87U U135A: the “polymerase ribozyme fitness (log ratio)” value was ≤ -4.2.

Take A30C G42A C54U G58A U90G C93G C96U C125A U148A: the “polymerase ribozyme fitness (log ratio)” value was ≤ -4.2.

Take A30C G152U: the “polymerase ribozyme fitness (log ratio)” value is ≤ -4.2. With A30U C54U C85U, the “polymerase ribozyme fitness (log ratio)” value is -3.87. In the case of A30G C38A U77A G84A G86A A113C A137U it was ≤ -4.2. For the variant A30C C105G, the “polymerase ribozyme fitness (log ratio)” value is ≤ -4.2. Then A30G U44G G58A C69A G83C A147U, with ≤ -4.2; and A30U C43A C54G C85A C125U G143A, with ≤ -4.2. Then A30G C54A C87A, with ≤ -4.2; and A30G A91U A120G, with ≤ -4.2; and A30U A49C U61G G84U U139C, with ≤ -4.2. In the case of A30U G50C C96U U104C G136U it was ≤ -4.2. For the variant A30U C72A C87U A121G, the “polymerase ribozyme fitness (log ratio)” value is ≤ -4.2. As to A30C G48C C51U G67U U82G G83U A89U U148A C149U, the “polymerase ribozyme fitness (log ratio)” value was ≤ -4.2.

As to A29U G74A C131A U148G, the “polymerase ribozyme fitness (log ratio)” value is ≤ -4.2.

A29U G34A U56A U61A G117U U139C A150C: the “polymerase ribozyme fitness (log ratio)” value was ≤ -4.2. Take A29U U82A C87A A107U A115U A122U G124C U151A: the “polymerase ribozyme fitness (log ratio)” value is ≤ -4.2. Then A30U A91U G94A, with ≤ -4.2.

For the variant A29U C69A G84A G141A, the “polymerase ribozyme fitness (log ratio)” value is ≤ -4.2. For the variant A29U G84U G94C U135G, the “polymerase ribozyme fitness (log ratio)” value is ≤ -4.2. Consider A30C U55G C76U C85A C125G, for which the “polymerase ribozyme fitness (log ratio)” value is ≤ -4.2. Then A30U G42A C76G, with ≤ -4.2; and A30G C63U C79G C93G C99A G100U U101G, with ≤ -4.2; and A30U A49C C96U, with ≤ -4.2.

For the variant A29U G94U C149G, the “polymerase ribozyme fitness (log ratio)” value is ≤ -4.2. In the case of A30G C76A C95A it was ≤ -4.2. As for A30G U127C A147G, the “polymerase ribozyme fitness (log ratio)” value was ≤ -4.2.

Consider A29U U56A C125G, for which the “polymerase ribozyme fitness (log ratio)” value was ≤ -4.2. For A29U C95A C116U, the “polymerase ribozyme fitness (log ratio)” value was ≤ -4.2. In the case of A30C A37U A52C G92U C103A it was ≤ -4.2. As to A30U A52U U78A, the “polymerase ribozyme fitness (log ratio)” value is ≤ -4.2. With A29U U31G C72U G83C, the “polymerase ribozyme fitness (log ratio)” value was ≤ -4.2. As to A29U U53A G92U G133U U134G, the “polymerase ribozyme fitness (log ratio)” value is ≤ -4.2. Take A30C U33C A39U A40G G83A U90C A121G: the “polymerase ribozyme fitness (log ratio)” value is ≤ -4.2. In the case of A30G C38A C57A G58C U78G A97G U101C U102G it was ≤ -4.2. Then A30G C87A A91C A110U A115U U135C, with ≤ -4.2.
